In the supplement of paper PMC10338343:
± gives the standard deviation. The full ranking holds about 5,500 sequences; the median of “pre-steady-state target cleavage rate” is about 0.1, and the highest 2% start at about 0.64. Only a part is listed here, and it is no random draw.

Each sequence was assayed on MIWI (PIWIL1) piRISC loaded with piRNA #2 (30 nt) (assay: pre-steady-state target cleavage rate (min^-1); MIWI and MILI are mouse PIWI proteins and EfPiwi is from a freshwater sponge; tags in brackets are library labels; higher = faster piRNA-guided slicing of the target). Settings: guide: piRNA #2 5'p-UUAGGUAACCCAGUAGAUCCAGAGGAAUUC; auxiliary factor: 500 nM mouse GTSF1.
Summary of the method: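 Cleave-'n-Seq measured uncleaved targets by sequencing after a transcribed, DNA-blocked target RNA library […] was mixed with 1 nM active affinity-purified piRISC holding one synthetic guide, with or without 500 nM GTSF1 partner protein, at 33 °C in HEPES–potassium acetate buffer for 0–8 or 0–960 min. Counts were normalised to depth and to weakly complementary targets, three trials were pooled, and k3 was capped at 0.0001 min^-1. A burst-and-steady-state fit gave the pre-steady-state cleavage rate.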

Sequence	pre-steady-state target cleavage rate
CUAUCUCCUCUGGAUCUACUGGGUUACCUAA	0.355 ± 0.058
CAAUUCCUCUGGAUGUACUGGGUUACCUAA	0.578 ± 0.054
GAAUUCCUCUGGAUGUACUCGGUUACCUAA	0.0939 ± 0.026
CUAUUCCUCUGGAUCUACUGGGUUACCCAA	0.337 ± 0.11
CUUUUCCUCUGGAUCUACUGGGUUCCCUAA	0.25 ± 0.043
CUUAACCUCUGGAUGUACUGGGUUACGUAA	0.373 ± 0.038
CUAUUCCUCUGGUUCUACUGGGUUACCAAA	0.339 ± 0.064
CUUAACCUCUGGCUCUACUGGGUUACCUAA	0.56 ± 0.042
CUUAUUCUCUGGAUCUACUGGGUUACCUAA	0.185 ± 0.03
CUAUUCCUCUGGAUCUUCUGGGUAACCUAA	0.0712 ± 0.015
CUUUUCCUCUGGAUCUACAGGGUAACCUAA	0.118 ± 0.019
CUUAAGGACUGGUAUCUACUGGGUUACCUAA	0.0272 ± 0.023
CUUAAGGUCUGGAUCUACUGGGAUUCCUAA	0.00713 ± 0.0031
CUUAAGCUCUGGAUCUUCUGGGUUAGCUAA	0.0528 ± 0.0097
GAAUUCCUCAGGAUCUACUGGGUAACCUAA	0.341 ± 0.037
CUUAACCUCUGGAUCUACUGGCUUACGUAA	0.0611 ± 0.0099
CUAUUCCUCUGGAUCAACUGCGUUACCUAA	0.492 ± 0.064
CUUAAGCUCUGGAUCACUGGGUUACCUAA	0.0108 ± 0.0037
CUUAAGGAGACGAUCUACUGGGUUACAUAA	0.0124 ± 0.0049
GAAUUCCUCGGAUCUACUGGGUUACCUAA	0.432 ± 0.08
CUUAAGCUCUGGAUCUACUGCGUUUCCUAA	0.0239 ± 0.011
CUAUUCCUCUGGAUCAACUGGGUAACCUAA	0.164 ± 0.028
GAAAUCCUCUGGAUCUACUGGGUUACCAAA	0.322 ± 0.067

Sequence	pre-steady-state target cleavage rate
GAAUUCCUCUGGUUCUACUGCGUUACCUAA	0.46 ± 0.045
CUUUUCCUCUGGAUGUACUGGGAUACCUAA	0.152 ± 0.02
CUUAUCCUGUGGAUCUACUGGGUUAGCUAA	0.0726 ± 0.018
CUUAAGGACUGGAUCUUCUGGGUUACCUUA	0.0155 ± 0.014
CUUAUCCUCUGGAUGUACUGGGUUACGUAA	0.519 ± 0.051
GAAUUCCUCUGGAUCUACAGGGUUACCUUA	0.17 ± 0.021
CUAUUCCUCUGGAUCUACUGGGCUUACCUAA	0.0845 ± 0.021
CAAUUCCUCUGGAUCUUCUGGGUUACCUUA	0.331 ± 0.056
CUUAAGCUCGGAUCUACUGGGUUACCUAA	0.189 ± 0.062
GAGAUUCCUCUGGAUCUACUGGGUUACCUAA	0.149 ± 0.034
CUUAAGCUCUGGAUCUACUGCGUAACCUAA	0.0706 ± 0.022
CAAUUCCUCUGGAUCUACACGGUUACCUAA	0.262 ± 0.035
CUUAAGGUCUGGAUUCUACUGGGUUACCUAA	0.126 ± 0.014
CUUAAGCUCUGGAUGUUCUGGGUUACCUAA	0.0899 ± 0.012
CUUAAGGUCUGGAACUACUGCGUUACCUAA	0.11 ± 0.056
CAUUUCCUCUGGAUCUAGUGGGUUACCUAA	0.219 ± 0.025
CUUUUCCUCUGGAUCUACUGGGUUACCUUAA	0.343 ± 0.052
GAAUUCCUCUGGAUCUACUGGCUUUCCUAA	0.0581 ± 0.019
CUUAACCUGUGGAUCUUCUGGGUUACCUAA	0.218 ± 0.037
CUUUUCCUCUGGAUCUACUGGGUUAACCUAA	0.429 ± 0.044
CUUAUACCUCUGGAUCUACUGGGUUACCUAA	0.389 ± 0.061
CUUAACCUCUGGAUCUAGUGGGAUACCUAA	0.0442 ± 0.0073
CUUAACCACUGGAUCUACUGGGUUACCAAA	0.289 ± 0.044

Sequence	pre-steady-state target cleavage rate
CUUAUCCUCAGGAUCUACUGGGUAACCUAA	0.201 ± 0.04
CAAUUCCUCAGGUUCUACUGGGUUACCUAA	0.709 ± 0.054
CUUAUCCUCUGGAUCUACUGGGUUACGCUAA	0.538 ± 0.04
CAAUUCCACUGGAUCUACUGGGUUACGUAA	0.419 ± 0.081
CUUAAGCUCUGCAUCAACUGGGUUACCUAA	0.136 ± 0.023
CUAUUCCUGUGCAUCUACUGGGUUACCUAA	0.343 ± 0.028
CUUAACCUCUGGAACUACUGGCUUACCUAA	0.078 ± 0.011
CUUAACCUCUGGAUCUACUGGCUUAGCUAA	0.0132 ± 0.0047
CUUAAGGACUGGAUCUACUGGGUUUCCUAA	0.0405 ± 0.032
CUAUUCCUCUGGAUCUUCUGGGUUACGUAA	0.379 ± 0.042
CUAUUCCUCUGCGAUCUACUGGGUUACCUAA	0.428 ± 0.042
CUUUUCCUCUGGAUCUACUCGGUAACCUAA	0.024 ± 0.011
GAAUUCCUCUGGAUCUACAGGGUUAGCUAA	0.171 ± 0.019
GAAUUCGUCUGGAUCUACUGGGUUACGUAA	0.575 ± 0.087
CUUAAGGACUGGAUGUACUGGGUUACGUAA	0.193 ± 0.052
CUUAAGGUCUGGAUCUACUGGGUUACGAAA	0.0873 ± 0.014
CUUAAGGAGUGGAUCUACUGGGUUCACCUAA	0.0595 ± 0.01
CAAUACCUCUGGAUCUACAGGGUUACCUAA	0.219 ± 0.026
CUAUUCCUGCUGGAUCUACUGGGUUACCUAA	0.506 ± 0.043
CUUUUCCUCUGGAUCUACUGGGUAACCUUA	0.163 ± 0.036
GUAUUCCUCUGGAUCUAGUGGGUUACCUAA	0.025 ± 0.0079
CUUAACCUCUGGAUCUACUGGGUCACCUAA	0.0652 ± 0.011
CUUAAGCUCUGGAACUACUGGGUUAGCUAA	0.12 ± 0.018

Sequence	pre-steady-state target cleavage rate
CUAUUCCUCUGCAUCUACUGGGUUAGCUAA	0.277 ± 0.029
CUUUUCCUUGGAUCUACUGGGUUACCUAA	0.429 ± 0.031
CUUAAGGACAGGUUCUACUGGGUUACCUAA	0.0257 ± 0.017
CUUAAGGUCUGGAUCUACUGGGUAACCUUA	0.0213 ± 0.0067
CUAUUCCUCAGGAUCUACUGGGUUUCCUAA	0.41 ± 0.055
CUUUUCCACUGGAUCAACUGGGUUACCUAA	0.429 ± 0.042
CUUUUCCUCUGGAUCAACUGGGUAACCUAA	0.122 ± 0.02
CUUAAGCUCUGGAUCUAGUGGGUAACCUAA	0.0215 ± 0.0067
CUUAUCCUCUGGAUCUAGUGGGUUUCCUAA	0.0946 ± 0.023
GAAUUCCUCAGGAUCAACUGGGUUACCUAA	0.521 ± 0.048
CUUAACCUGUGGAUCUACUGGGUAACCUAA	0.0751 ± 0.013
CUUAUCCUCUGCAUCUACUGGGUUACCUUA	0.195 ± 0.033
CUUAAGCUCUGGAUCUACUGGCUAACCUAA	0.00565 ± 0.0046
CUUAAGGACUGGAUCUACUCGGUUACGUAA	0.0478 ± 0.024
CAAUUCCUCUGGUUCUACUGGGUUUCCUAA	0.951 ± 0.36
CUAUUCCUCUGGAUCUACUGGGUUACUUAA	0.57 ± 0.045
CUUAUCCUGACGAUCUACUGGGUUACCUAA	0.0767 ± 0.014
CUUAUCCUCUGCAACUACUGGGUUACCUAA	0.239 ± 0.021
CUAUUCCUCUGGAUCUACUGGGUUAGCAAA	0.183 ± 0.044
CUUAAGGUCUGGUUCUACUGGGUUUCCUAA	0.0244 ± 0.0059
CUUAAGGACAGGAUCAACUGGGUUACCUAA	0.0169 ± 0.0069
GAAUUCCUCUGGAUCUACUGCGUUACCAAA	0.277 ± 0.059
CUUAAGCUCUGGAUCUACUGGGUUACCUAA [g2:g24:cont:t1A]	0.112 ± 0.026
